The text below walks through data of patent US20230120736A1, “ANTI-CD98 ANTIBODIES AND ANTIBODY DRUG CONJUGATES” (AbbVie Inc., priority 2016, published 2023).

In one data set the target is T1, human CD98 (Homo sapiens, UniProt P08195).
T1 sequence (P08195 1-630 isoform P08195-1): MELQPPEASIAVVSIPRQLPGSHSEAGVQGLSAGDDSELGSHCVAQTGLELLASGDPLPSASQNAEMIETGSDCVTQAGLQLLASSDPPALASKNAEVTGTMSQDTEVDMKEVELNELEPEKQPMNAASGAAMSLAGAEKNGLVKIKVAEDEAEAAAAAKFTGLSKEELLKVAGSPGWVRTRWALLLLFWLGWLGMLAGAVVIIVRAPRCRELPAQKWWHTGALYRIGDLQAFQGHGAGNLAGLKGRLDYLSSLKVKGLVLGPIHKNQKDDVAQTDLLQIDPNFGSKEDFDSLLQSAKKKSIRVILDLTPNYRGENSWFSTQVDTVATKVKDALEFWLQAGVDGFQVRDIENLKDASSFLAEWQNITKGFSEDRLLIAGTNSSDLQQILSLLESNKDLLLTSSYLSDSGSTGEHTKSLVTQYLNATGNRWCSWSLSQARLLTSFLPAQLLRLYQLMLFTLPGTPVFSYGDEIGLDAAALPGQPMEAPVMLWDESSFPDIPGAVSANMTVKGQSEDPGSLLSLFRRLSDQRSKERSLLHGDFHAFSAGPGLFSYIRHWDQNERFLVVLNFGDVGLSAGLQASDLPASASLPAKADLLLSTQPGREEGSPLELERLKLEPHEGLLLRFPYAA
In words: Binding of humanized antibodies to human CD98. To be noted: humanized variants of chAb3 and chAb15.

Data set [1] in a line: Conjugation of anti-CD98 mAbs with Bcl-xL inhibitor synthons (precipitation, DAR, recovery, aggregation). The following applies: mAb conjugated with Bcl-xL inhibitor synthon CZ, Method A. The procedure:
Method A. A solution of BOND-BREAKER tris(2-carboxyethyl)phosphine (TCEP) solution (10 mM, 0.017 mL) was added to a solution of antibody (10 mg/mL, […]) preheated to 37° C. The reaction mixture was kept at 37° C. for 1 hour. The solution of reduced antibody was added to a solution of synthon (3.3 mM, 0.160 mL in DMSO) and gently mixed for 30 minutes. The reaction solution was loaded onto a desalting column (PD10, washed with DPBS 3x before use), followed by DPBS (1.6 mL) and eluted with additional DPBS (3 mL). The purified ADC solution was filtered through a 0.2 micron, low protein-binding 13 mm syringe-filter and stored at 4° C.
Method E. A solution of BOND-BREAKER tris(2-carboxyethyl)phosphine (TCEP) solution (10 mM, 0.017 mL) was added to the solution of antibody (10 mg/mL, 1 mL) at room temperature. The reaction mixture was heated to 37° C. for 75 minutes. The solution of reduced antibody cooled to room temperature and was added to a solution of synthon (10 mM, 0.040 mL in DMSO) followed by addition of boric buffer (0.1 mL, 1M, pH 8). The reaction solution was let to stand for 3 days at room temperature, loaded onto a desalting column (PD10, washed with DPBS 3×5 mL before use), followed by DPBS (1.6 mL) and eluted with additional DPBS (3 mL). The purified ADC solution was filtered through a 0.2 micron, low protein-binding 13 mm syringe-filter and stored at 4° C.

Data set [2] deals with cynomolgus monkey CD98 ECD. In words: Biacore surface plasmon resonance binding kinetics (anti-Fc capture). The following applies: cyCD98 ECD. The procedure:
(§1) The binding kinetics of these purified mouse and rat monoclonal anti-CD98 antibodies for purified recombinant CD98 protein (extracellular domain, ECD) were determined by surface plasmon resonance-based measurements made on Biacore T100/T200 instruments (GE Healthcare, Piscataway, N.J.) at 25° C. using an anti-Fc capture assay approach. Binding kinetic measurements were made in the assay buffer HBS-EP+: 10 mM Hepes, pH 7.4, 150 mM NaCl, 3 mM EDTA, 0.05% Tween 20). For example, approximately 8000 RU of anti-Fc (species specific) polyclonal antibody (Thermo Fisher Scientific Inc., Rockford, Ill.) diluted in 10 mM sodium acetate (pH 4.5) was directly immobilized across a CM5 research grade biosensor chip using a standard amine coupling kit according to manufacturer's instructions and procedures at 25 μg/ml. Unreacted moieties on the biosensor surface were blocked with ethanolamine. The test antibody to be captured as a ligand was diluted in running buffer to ˜0.5 μg/mL and injected over anti-Fc surface at a flow rate of 10 μL/min. CD98 binding and dissociation were observed under a continuous flow rate of 80 μL/min. Human and cynomolgus monkey CD98 ECDs, both with a C-terminal His-tag, are used for this study (Table 3). After each cycle the anti-Fc capture surface was regenerated using 10 mM Glycine-HCl, pH 1.5. During the assay, all measurements were referenced against the capture surface alone (i.e., with no captured test antibody) and buffer-only injections (no antigen) were used for double referencing. For kinetic analysis, rate equations derived from the 1:1 Langmuir binding model were fitted simultaneously, globally and with mass transfer term included to multiple referenced antigen binding curves using Biacore T100/T200 Evaluation software.
(§2) The in vitro binding activities of the recombinant anti-CD98 chimeric mAbs were measured against both recombinant CD98 extracellular domain proteins (ECDs) and CD98-expressing cells. Briefly, binding kinetics of anti-CD98 chimera mAbs for human and cynomolgus CD98 ECDs were determined by surface plasmon resonance-based measurements as described in Example 4. Table 10 reported the association and dissociation rate constants for CD98 binding, ka (M^−1 s^−1) and kd (s^−1), and the equilibrium dissociation constant KD (M) of the interaction between antibodies and the target antigen. Binding of anti-CD98 chimera mAbs for CD98 on cell surface was evaluated by flow cytometry against CHO-K1 cell line stably transfected to express human CD98 and 3T12 cell line stably transfected to express cynomolgus monkey CD98.
(§3) The binding kinetics of the recombinant anti-CD98 chimeric antibodies for purified recombinant CD98 protein (extracellular domain, ECD) were determined by surface plasmon resonance-based measurements, as described in the Example 4.
For orientation: SPR reads the build-up and loss of mass on a sensor chip optically.

Another data set concerns the target T2, human CD98 ECD (Homo sapiens, UniProt P08195).
T2 construct: Human CD98 ECD with C-terminal His-tag
T2 sequence (P08195 with tags, fused parts or gaps): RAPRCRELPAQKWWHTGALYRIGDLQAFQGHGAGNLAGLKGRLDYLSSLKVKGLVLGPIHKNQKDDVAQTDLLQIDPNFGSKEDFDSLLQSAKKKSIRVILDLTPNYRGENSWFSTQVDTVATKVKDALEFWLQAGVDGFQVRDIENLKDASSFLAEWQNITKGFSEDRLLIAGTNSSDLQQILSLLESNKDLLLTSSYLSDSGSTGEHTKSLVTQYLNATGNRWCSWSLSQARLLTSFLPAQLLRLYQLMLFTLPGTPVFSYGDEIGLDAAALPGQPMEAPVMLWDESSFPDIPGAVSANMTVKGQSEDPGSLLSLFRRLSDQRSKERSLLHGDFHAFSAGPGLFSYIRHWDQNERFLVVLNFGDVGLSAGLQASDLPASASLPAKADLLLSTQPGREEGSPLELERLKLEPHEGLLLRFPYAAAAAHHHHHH
The description is as above. The following applies: huCD98 ECD. On the procedure: as §1, §2, §3

B1: huAb3v1 (antibody, V domains shown)
VH: EVQLVESGGGLVQPGRSLRLSCTTSGFTFIDYYMSWVRQAPGKGLEWLGFIRNKANRYTTEYSASVKGRFTISRDNSKSILYLQMNSLKTEDTAVYYCTRDRPAWFVYWGQGTLVTVSS
VL: DIVMTQSPDSLAVSLGERATINCKSSQSLLYSSNQKNYLAWYQQKPGQSPKLLIYWASTRESGVPDRFSGSGSGTDFTLTISSLQAEDVAVYYCQQYYSYPYTFGGGTKVEIK
For B1, the “binding to human CD98” value with human CD98 is listed as “maintained binding”. For the same molecule, in data set [1], the “DAR by MS” value amounted to 3.4; the “Key observation for ADC solution during and after conjugation” value is “Cloudy during conjugation; precipitated at 4 °C”. In data set [2], the ka stood at 40000 M⁻¹ s⁻¹ and the kd stood at 0.00092 s⁻¹. In the data set with human CD98 ECD, the ka was determined as 180000 M⁻¹ s⁻¹ and the kd was 0.0023 s⁻¹.

B2: huAb3v2 (antibody, V domains shown)
VH: EVQLVESGGGLVQPGRSLRLSCTTSGFTFIDYYMSWVRQAPGKGLEWLGFIRNKAYGYTTEYSASVKGRFTISRDNSKSILYLQMNSLKTEDTAVYYCTRDRPAWFVYWGQGTLVTVSS
VL: DIVMTQSPDSLAVSLGERATINCKSSQSLLYSSNQKNYLAWYQQKPGQSPKLLIYWASTRESGVPDRFSGSGSGTDFTLTISSLQAEDVAVYYCQQYYSYPYTFGGGTKVEIK
With B2, the “binding to human CD98” value in the data set with human CD98 is listed as “maintained binding”. In data set [1], the “DAR by MS” value is listed as 3.0; the “Key observation for ADC solution during and after conjugation” value is “Precipitated during and after conjugation; aggregation”; the aggregation level entry is “level 16.52%”. In data set [2], this molecule returned a ka of 29000 M⁻¹ s⁻¹ and a kd of 0.00049 s⁻¹. In the data set with human CD98 ECD, this molecule yielded a ka of 260000 M⁻¹ s⁻¹ and a kd of 0.0013 s⁻¹.
